Test results published in publication PMC6609622, “Poly(ADP-ribose) polymerase-1 antagonizes DNA resection at double-strand breaks”.

Tested on: EXO1 (human)
Assay: single-molecule DNA curtains
Settings: EMSA: 20 mM Na-HEPES pH 7.5, 0.1 mM DTT, 0.05% Triton X-100, 100 ug/mL BSA, 5 mM MgCl2, 2 mM ATP, 100 nM DNA, 37 C 10 min, then 0.2% glutaraldehyde 15 min

lambda DNA curtain substrate with 78-nt 3' overhang
binding signal (% EXO1 loading per PARP-bound DNA end) (DNA end pre-bound by PARP-1): 2.4
binding signal (% EXO1 loading per PARP-bound DNA end) (DNA end pre-bound by PARP-2): 91.8

Entries with a single value are a further part of the results.
